In ChEMBL document CHEMBL4888484, “Replenishing the malaria drug discovery pipeline: Screening and hit evaluation of the MMV Hit Generation Library 1 (HGL1) against asexual blood stage Plasmodium falciparum ,using a nano luciferase reporter read-out” (2022):
The whole screen tested about 4,800 compounds, of which about 420 (8.8%) showed an effect of 50% or more. Some of the results follow.

Tested on: Plasmodium falciparum
Test: Confirmatory screen in NF54 nanoGlo assay, in single point, at 2uM, 72h
Format: functional, Erythrocyte
Settings: timepoint 72 hour

| Compound | % Inhibition |
| --- | --- |
| Cc1cnc(CNC(=O)Nc2nnc3ccccn23)s1 | -13% |
| CCc1[nH]nc(NC(=O)c2c(C)ccnc2O)c1C | -10% |
| CN(C)c1ccc(-c2nc3[nH]cnn3c2Nc2ccccc2)cc1 | 4% |
| C[C@H](NCCc1ccccc1)c1cccc(COc2nn3c(C(F)(F)F)nnc3c3ccccc23)n1 | -2% |
| COc1cc(C(=O)Nc2ccc3sc(NC(=O)c4cc(OC)c(OC)c(OC)c4)nc3n2)cc(OC)c1OC | 56% |
| COC1C(C(N)=O)OC2OC3(CCCCC3)OC21 (stereo unspecified) | -7% |
| CCOC(=O)C1CCN(C(=O)c2nc(-c3ccc(N4CCCC4)nc3)no2)CC1 | 3% |
| COc1ccc(-c2noc(Cn3c(=O)c4ccccc4n(CC(=O)NCCc4ccc(OC)c(OC)c4)c3=O)n2)cc1 | 0% |
| CC(C(=O)N1N=CCC1(O)C(F)(F)F)n1nc(C(F)(F)F)cc1C1CC1 (stereo unspecified) | -1% |
| O=C(NCc1ncc[nH]1)[C@@H]1COc2ccc(Br)cc21 | 11% |
| CCn1ccc(C(=O)NC2CCN(c3nnc4ccc(Cl)cn34)CC2)n1 | -10% |
| COc1cccc(S(=O)(=O)N2CCC(OCCOc3ccccc3)CC2)c1 | 0% |
| O=C(Nc1cccc(Oc2c(F)c(F)c(-c3c(F)c(F)c(Oc4cccc(NC(=O)c5ccccc5)c4)c(F)c3F)c(F)c2F)c1)c1ccccc1 | 5% |
| O=S(=O)(c1ccccc1F)C1CNC1 | -12% |
| CC(C)(C)c1ccc(C(=O)N[C@H]2CCCC[C@@H]2NC(=O)c2ccc(C(C)(C)C)cc2)cc1 | -5% |
| CCN1CCN(CC(=O)N2N=C(c3ccc(C)c(C)c3)C[C@H]2c2cccn2C)CC1 | 7% |
| Cc1ccc(CN2C(=O)NC3(CCCCC3C)C2=O)c(OCC2CCOC2)c1 (stereo unspecified) | 1% |
| CCC(=O)Nc1nc(-c2ccccc2)nc2c1C(=O)CCC2 | -2% |
| COc1cccc(N2CCN(C(=O)c3nn(-c4ccc(C)cc4)c(OC)cc3=O)CC2)c1 | -11% |
| O=C(NCC1CC2CCC1C2)N1CCOC(Cn2cccn2)C1 (stereo unspecified) | -16% |
| C=CCNCc1ccc(Br)cc1 | -13% |

| Compound | % Inhibition |
| --- | --- |
| CC1CN(C(=O)C(Cc2ccccc2)NC(=O)c2ccccc2)CC(C)O1 (stereo unspecified) | -5% |
| Nc1ncnc(NCc2cccnc2OCC(F)F)c1Cl | 7% |
| c1ccc(CNc2ncnc3c2cnn3-c2ccccn2)cc1 | -4% |
| Cc1nnc(O)c(CNC(=O)COC2CCCC(C)C2)c1C (stereo unspecified) | -7% |
| CC(C)C(=O)N1N=C(C(C)C)C[C@]1(O)C(F)(F)F | -1% |
| O=C(Cn1c(=O)n(C2CC2)c(=O)c2snc(-c3ccccn3)c21)NCc1ccccc1 | 3% |
| CCc1cc(C(=O)N2CCC(C)CC2)c2c(C3CC3)nn(-c3ccc(F)cc3)c2n1 | 1% |
| CC[C@@H](CO)Nc1ncc2cc3ccccc3nc2c1C#N | -3% |
| O=C(N[C@H]1C[C@@H]2C[C@H]1CN2C(=O)c1cccc(C(F)(F)F)c1)c1ccccc1 | 3% |
| CCc1cccc(NC(=O)C2CCN(c3c(C)n(-c4ccccc4)c(=O)n(CC(C)C)c3=O)CC2)c1 | -4% |
| N#CCCN(C(=O)COC(=O)c1ccc(S(=O)(=O)N2CCOCC2)cc1)c1ccccc1 | 3% |
| CC(C)(NCCc1c[nH]c2ccccc12)c1nnnn1Cc1cccnc1 | 3% |
| Cn1c(-c2ccc(Cl)c(Cl)c2)c[n+](CC(=O)c2ccc(F)cc2)c1N | -13% |
| COc1ccc(CNCCC2C(C)CN(C)C(C)C2Cc2ccccc2)cc1 (stereo unspecified) | 59% |
| Cc1cccc(OC(=O)O[C@H]2c3nccnc3C(=O)N2c2ccc(Cl)cn2)c1 | -1% |
| CC(C)(C)c1ccc(-c2cc(C[C@H]3CNCC[C@H]3CC(=O)NCCN3CCOCC3)no2)cc1 | 9% |
| CC(=O)c1ccc(N2CCN(c3nccn4nc(-c5ccccc5C)cc34)CC2)cc1 | -5% |
| O=C(O)C[C@@H]1CCN(CC2CC2)C[C@@H]1Cc1nc2ccccc2[nH]1 | 2% |
| CC(C)N1CCC2(CC1)N=C(c1ccc3c(c1)OCO3)C[C@@H](c1cc(Cl)ccc1O)N2 | 41% |
| CN(C)c1ccc(C(=O)N[C@@]2(C)CCS(=O)(=O)C2)cc1 | -6% |
| COc1ccc(CCNc2nc(-c3ccc(OC)cc3F)c3c(N)n(-c4ccc(Cl)cc4)nc3n2)cc1 | 59% |

| Compound | % Inhibition |
| --- | --- |
| CS(=O)(=O)N1CC[C@H](CC(=O)NCCCc2ccccc2)C1 | 2% |
| Cc1ccc(OCn2cc(NS(=O)(=O)c3cnn(C)c3C)cn2)c(C)c1 | -3% |
| CCN1C(=O)[C@]2(NC3(CCCCC3)C(=O)N2CC)c2ccccc21 | -9% |
| CCn1cc(-c2nc(-c3ccccc3C)no2)c(=O)c2cc(F)c(N3CCCCC3)cc21 | 47% |
| O=C1CCc2[nH]c(=O)n(C3CCCCC3)c(=O)c21 | 4% |
| COc1cccc(CCc2ccccc2OC[C@H](CN(C)C)OC(=O)CCC(=O)O)c1 | -8% |
| O=C(CN1CCCCC1=O)NCCc1c[nH]c2ccccc12 | -10% |
| Cn1n[n+](CCCCC(Cl)(Cl)Cl)c2ccccc21 | 53% |
| c1cc(-c2nc3cc4ccccc4cc3[nH]2)nc(-c2nc3cc4ccccc4cc3[nH]2)c1 | 99% |
| CN(C)/C=C/c1cc(C#N)c(C#N)cc1Br | -4% |
| CCn1cc(Cl)c(C(=O)N2N=C3/C(=C/c4ccc5c(c4)OCO5)CCCC3C2c2ccc3c(c2)OCO3)n1 (stereo unspecified) | 5% |
| COc1cc(C(c2c(C)n(C)n(-c3ccccc3)c2=O)c2c(C)n(C)n(-c3ccccc3)c2=O)c(Br)c(Br)c1OCc1ccccc1 | 7% |
| CCn1nccc1C(=O)NC1CCN(c2nnc3ccccn23)CC1 | -1% |
| COc1nc(NC[C@H]2CCCN2C(C)C)ncc1F | 66% |
| Cc1nn(-c2ncc(C(F)(F)F)cc2Cl)c(=O)n1-c1ccc(OCc2ccccc2)cc1 | -17% |
| C[C@H](NC(=O)c1ccsc1)c1cccs1 | 2% |
| Cc1cccc(C)c1NC(=O)C1(N(Cc2ccco2)C(=O)c2ccc(Cl)cc2)CCC(C)CC1 (stereo unspecified) | 4% |
| COCCN1CC2(CCCC2)N(C(=O)COc2ccc(F)cc2)CC1=O | -7% |
| Cc1ccc(N(Cc2cccs2)C(=O)c2cccs2)cc1Cl | 38% |
